This sample is rich in variants without activity.

The results in this text go back to the RNAGym collection of RNA variant scans (doi:10.1101/gad.245936.114).

First the molecules themselves.
B1: tRNA (parent)
chain: CUCUCGGUAGCCAAGUUGGUUUAAGGCGCAAGACUUUAAUUUAUCACUACGAAAUCUUGAGAUCGGGCGUUCGACUCGCCCCCGGGAGAUUUUUUCCUCGAGCAA

In this series the parent is B1. Nature of the series: nonsense suppression (GFP-seq) (ratio to wild type); higher = more function; SUP4oc tRNA, yeast GFP reporter sort-seq. In outline: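 Each variant's nonsense suppression (GFPSEQ) is a cell-share-weighted bin median GFP/RFP relative to the unmutated parent tRNA. Yeast with genome-integrated tRNA variants from a ~3% random-mutation library, a galactose-driven GFP ochre reporter and RFP were grown in raffinose/galactose medium with 80 mg/L adenine, then sorted into GFP/RFP bins for Illumina sequencing. Variants needed ≥100 reads and ≥30 cells.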
Consider CUCUCGGUAGCCAAGUUGCUUUAAGGCGCAAGACUUUAAUUUAUCACUACGAAAUCUUGAGAUCCGGCGUUCGACUCGCCGCCGGGAGCUUUUUUCCUCGAGCAA, for which the nonsense suppression is no more than 0.026.
The same measure for CGCUCGGUAGCCAAGUUGGUUUAAGGCGCAAGACUUUAAUUUAUCACUACGAAAUCUUGAGAUCGGGCGUGCGACUCGCCCCCGGGAGAUUUUUUCCUCGAGCAA: no more than 0.026; for CUCUCGGUAGCCAAGUUGGUUUAAGGCGCAAGACUUUAAUUUAUCACUACGAAAUCUUGAGAUCCGGCGUUCGACUCGCCCCCUGGAGAUUUUUUCCUCGAGCAA: no more than 0.026; for CUCUCGGUAGCCAAGUUGGUUUAAGGCGCAACACUUUAAUUUAUCACUACGAAAUCUUGAGAUCGGGCGUUCGACUGGCCCCCGGGAGAUUUUUUCCUCGAGCAA: no more than 0.026.
With CUCUCGGUAGCCAAGUUGGUUCAAGGCGCAAGACUUUAAUUUAUCACUACGAAAUCUUGAGAUCAGGCGUUCAACUCGCCCCCGGGAGAUUUUUUCCUCGAGCAA the figure was no more than 0.026; with CUCUCGGUAGCCAAGUUGGUUUAAGGCGCCAGACGUUAAUUUAUCACUACGAAAUCUUGAGAUCGGGCGUUCCACUAGCCCCCGGGAGAUUUUUUCCUCGAGCAA, no more than 0.026.
Consider CUCUCAGUAGCCAAGUUGGUUUAAGUCGCAAGACUUUAAUUUAUCACUACGAAAUCUUGAGAUCGGGCGUUCGACUCGCCCCAGGGAGAUUUUUUCCUCGAGCAA, for which the nonsense suppression was no more than 0.026.
As for CUCUCGGUAGCCAAGUUGGUUUAAGGCGCAAGACGUUAAUUUAUCACUACGAAAUCUUGAGAUCGGGCGUUCCACUCGCCCCCGGGAGGUUUUUUCCUCGAGCAA, the nonsense suppression is no more than 0.026.
As for UUCUCGGUAGCCAAGUUGGUUUAAGGCGCAAGUAUUUAAUUUAUCACUACGAAAUCUUGAGAUCGGGCGUUCGACUCGCCCCCGGGAGAUUUUUUCCUCGAGCAA, the nonsense suppression is no more than 0.026.
Regarding GUCUCGGUAGCCAAGUUGGUUUAAGGCGCAAGACUUUAAUUUAUCACUACGAAAUCUUGAGAACGGGCGGUCGACUCGCCCCCGCGAGAUUUUUUCCUCGAGCAA, the nonsense suppression was no more than 0.026.
In the case of CUCUCGGUAGCAAAGUUGGUUUAAGGCGCAAGACUUUAAUUUAUCACUACGAAAUCUUAAGAUCGGGCGUUCGACUCGCCCCCGGGAGAUUUUUUCCUCGAGCAA, the nonsense suppression is no more than 0.026.
Regarding CGCUCGGUAGCUAAGUUGGUUUAAGGCGCAAGACUUUAAUUUAUCACUACGAAAUCUUGAGAUCGGGCGUUCGACUCGCCCAGGGGAGAUUUUUUCCUCGAGCAA, the nonsense suppression is no more than 0.026.
For CUCUCGGGAGCCAAGUUGGUUUACGGCGCAAGACUUUAAUUUAUCACUACGAAAUCUUGAGAUCGGGCGUUCGACUCGCCCCCGGGAGAUUUUUUCCUCGAGCAA, the nonsense suppression was no more than 0.026.
In the case of CUCUCGGUAGCCAGGUUGGUUUAAGGCGCAAGACUUUAAUUUAUCACUACGAAAUCUUGAGAUCGGCCGUGUGACUCGCCCCCGGGAGAUUUUUUCCUCGAGCAA, the nonsense suppression is no more than 0.026.
Consider UUCUCGGUAUCCAAGCGGGUUUAAGGCGCAAGACUUUAAUUUAUCACUACGAAAUCUUGAGAUCGGGCGUUCGACUCGCCCCCGGGAGAUUUUUUCCUCGAGCAA, for which the nonsense suppression is no more than 0.026.
Take CUCUCGGUAGCCAAGUUGGUGUAAGGCGUAAGACUUUAAUUUAUCACUACGAAAUCUUGAGAUCGGGCGUUCGACUCGCCCUCGGGAGAUUUUUUCCUCGAGCAA: the nonsense suppression is no more than 0.026.
Consider CUCUCCGUAGCCAAGUUGGUUUAAGGCGCACGACUUUAAUUUAUCACUACGAAAUCUUGAGAUCGGGCGUUCGACUCGCCCCCGCGAGAUUUUUUCCUCGAGCAA, for which the nonsense suppression is no more than 0.026.
Turning to CUCUCGGUAGCCAAGUUGCUUUAAGGCGCAAGACUUUAAUUUAUCACUACGAAAUCUUGAGAUCGGGCGUUCGACUCGCCCCCGGGAAAUUUUUUCCUCGAGCAA, the nonsense suppression was no more than 0.026.
With CUCUUGGUAGCCAAGUUGGUAUAAGGCGCAAGACUUUAAUUUAUCACUACGAAAUCUUGAGAUCGGGCGUUCGACUCGCCCCCGGGAGAUUUUUUCCUCGAGCAA, the nonsense suppression is no more than 0.026.
For CUCUCGGUAGCCAAGUUGGUUUGAGGCGCAAGACUUUAAUUUAUCACUACGAAAUCUUGAGAUCGGGCGGUCGACUCGCCCCCGGGAGAUUUUUUCCUCGAGCAA, the nonsense suppression is no more than 0.026.
CUCUCGGUAGUCAAGUUGGUUUAAGGCGCACGACUUUAAUUUAUCACUACGAAAUCUUGAGACCGGGCGUUCGACUCGCCCACGGGAAAUUUUUUCCUCGAGCAA: the nonsense suppression was no more than 0.026.
CUCUCGGUAGCCAAGUUGGUUUACGACGCUAGACUUUAAUUUAUCACUACGAAAUCUUGAGAUCGGGCGUUCGACUCGCUGCCGGGAGAUUUUUUCCUCGAGCAA: the nonsense suppression is no more than 0.026.
As for CUCUCGGUAGCUAAGUUGGUUUCAGGCGCAAGACUUUAAUUUAUCACUACGAAAUCUUGAGAUCGGGCGUUCGACUCCCCCCCGGGAGAUUUUUUCCUCGAGCAA, the nonsense suppression is no more than 0.026.
As for CCCUCUGUAGCCAAGUUGCUUUAAGGCGCAAGACUUUAAUUUAUCACUACGAAAUCUUGAGAUCGGGCGUUCGACUCGCCCCCCAGAGGUUUUUUCCUCGAGCAA, the nonsense suppression is no more than 0.026.
Regarding CUCUCGGUAGCCAAGUUGCUUUAAGACGCAAGACUUUAAUUUAUCACUACGAAAUCUUGAGAUCGGGCGUUCGACUCGCCCCCGGGAGAUUUUUUCCUCGAGCAA, the nonsense suppression was no more than 0.026.
On to CUCUCGGUAGCCAAGUUGGUUUAAGGCGCAAGACUUUAAUUUAUCACUACGAAAUCUUGAGAUCGGGAGUUCGACUCGCCCCCGGGACAUUUUUUCCUCGAGCAA, for which the nonsense suppression was no more than 0.026.
With CUCUCGGUAGUCAAGUAGGUUUAAGGUGCACGACUUUAAUUUAUCACUACGAAAUCUUGAGAUCGUGCGUUCGACUCGCCCCCGGGAGAUUUUUUCCUCGAGCAA the figure was no more than 0.026.
